Values joined by “and” are separate entries in the source; they are usually repeats but may differ in a detail not shown here. Identical values can stand only once. Inconclusive means that the source gave no clear call. Such entries were picked first, then a sample of the others. No potency is given beside an inconclusive call; the fits are too rough. More than one record can exist for a structure, and the calls need not agree. Active and inactive are the calls of the source. Calls follow the shape of the dose curve; as a rule, active = well fitted inhibition curve with a large enough effect; inconclusive = small, poorly fitted or top-dose-only effect; inactive = no such curve, though single readings can be large or run the other way.
Experiment: Primary qHTS for small molecule stabilizers of the endoplasmic reticulum resident proteome: Secreted ER Calcium Modulated Protein (SERCaMP) assay (AID 1508630)
Details: SH-SY5Y GLuc-SERCaMP (Gaussia luciferase released on ER calcium loss) secretion, thapsigargin, luminescence; activity change, negative = inhibition: at 38.4 µM (top of the series)
Outline: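 GLuc-SERCaMP-expressing SH-SY5Y cells, pretreated 16 h with compound, are challenged with thapsigargin to empty ER calcium stores; after 4 h, coelenterazine is added directly to the medium and luminescence is imaged.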
% is scaled to controls: 0 for no effect and ±100 for the full control effect; potency is read from the fitted curve at half-maximal effect; tags tell the direction and shape of the fitted curve.

Row | Structure (SMILES) | activity change, negative = inhibition | Potency
1 | Cc1ccccc1-n1c(Cn2nc(-c3cccc(O)c3)c3c(N)ncnc32)nc2cccc(C)c2c1=O | inactive: 0% | –
2 | O=C(Nc1cc(Cl)cc2c1[nH]c1cnccc12)c1cccnc1 | – | inconclusive [inhibitor, full curve, poor fit]
3 | Cc1cnc(C(=O)O)c[n+]1[O-] | – | inconclusive [inhibitor, partial curve, poor fit]
4 | O=C(CCc1ccc(O)cc1)c1c(O)cc(O)cc1O | – | inconclusive [inhibitor, partial curve, poor fit]
5 | N[C@@H](Cc1cc(I)c(Oc2cc(I)c(O)c(I)c2)c(I)c1)C(=O)O | – | inactive and active: 749 nM
6 | CC[C@H](C=C[C@@H](C)[C@H]1CC[C@H]2[C@@H]3CC=C4C[C@@H](O)CC[C@]4(C)[C@@H]3CC[C@]12C)C(C)C | inactive: 90.8% [at 21.6 µM] | –
7 | CN(C)N=Nc1nc[nH]c1C(N)=O | – | inconclusive [inhibitor, full curve, poor fit]
8 | CC(C)C(C)C=CC(C)C1CCC2C3=CC=C4CC(O)CCC4(C)C3CCC21C (stereo not given) | – | active: 1490 nM
9 | CC(C)C[C@H](NC(=O)[C@H](CCc1ccccc1)NC(=O)CN1CCOCC1)C(=O)N[C@@H](Cc1ccccc1)C(=O)N[C@@H](CC(C)C)C(=O)[C@@]1(C)CO1 | – | inconclusive [inhibitor, partial curve, poor fit]
10 | CCOc1cc(CC(=O)N[C@@H](CC(C)C)c2ccccc2N2CCCCC2)ccc1C(=O)O | inactive: 51.8% | –

Reference: PubChem BioAssay (NCATS)
